Our source for the activation values is PubChem BioAssay AID1346428 (National Center for Advancing Translational Sciences (NCATS), 2018).

SMILES strings stand for the structures. Values joined by “and” are separate entries in the source; they are usually repeats but may differ in a detail not shown here. Equal entries are not always repeated. Screen size: about 48,000 compounds; about 1,200 (2.5%) were called active. Inconclusive results (about 2%) are left out.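 How the source made its calls: active means activation of at least 60% and not above a set upper limit (about 1 call in 100 departs from these limits); inconclusive means activation of 40% to 60%, or above that upper limit; inactive means activation under 40%.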 Some of the results follow.

Chain of UniProt O75388 (O75388 whole entry, looked up): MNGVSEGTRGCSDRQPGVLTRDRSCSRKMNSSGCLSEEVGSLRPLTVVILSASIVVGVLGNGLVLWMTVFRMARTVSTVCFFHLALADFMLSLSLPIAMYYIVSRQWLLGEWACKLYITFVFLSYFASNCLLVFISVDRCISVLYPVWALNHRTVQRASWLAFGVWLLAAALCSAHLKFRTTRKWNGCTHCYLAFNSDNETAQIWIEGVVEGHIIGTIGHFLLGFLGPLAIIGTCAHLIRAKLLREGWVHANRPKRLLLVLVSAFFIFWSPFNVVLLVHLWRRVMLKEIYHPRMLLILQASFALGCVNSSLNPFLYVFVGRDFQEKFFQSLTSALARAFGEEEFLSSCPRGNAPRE

The assay deals with Probable G-protein coupled receptor 32 (Homo sapiens) (UniProt O75388). As to the kind of experiment: qHTS for Agonists of Human Resolvin D1 Receptor DRV1. Further: 0% is about no effect. Particulars: CHO-K1 GPR32 beta-arrestin PathHunter luminescence, 90 min; at 76.9 µM; hits give high values; zero percent set by DMSO-only wells. The method in brief:
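Engineered CHO-K1 line co-expressing GPR32-ProLink and EA-beta-arrestin. Compound treatment lasted 90 min at 37 °C. Luminescence was recorded after 1 h with substrate at ambient temperature, relative to DMSO basal wells.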
In general terms: In qHTS, concentration-response curves come from the screen itself.
Turning to `CCOC(=O)c1cc(S(=O)(=O)NCc2ccccc2)[nH]n1`, the activation is inactive: -25.3%. As for `CCC(CO)NC(=O)C(=O)Nc1c2c(nn1-c1ccc(F)cc1)CSC2` (stereo not drawn), the figure is inactive: -12.2%; as for `COc1ccccc1CNS(=O)(=O)c1c(C)nc2scc(C)n2c1=O`, inactive: 9.29%; as for `Cc1cc(Nc2ccc(C)c(Cl)c2)n2nc(Cc3ccccc3)nc2n1`, inactive: 9.97%.

Take `CCN(c1ncnc2c1cnn2-c1ccc(C)cc1)C1CCCCC1`: the activation is inactive: -0.0092%. In the case of `CCOc1ccc(NC(=O)CSc2nc(-c3ccc(OC)cc3)nc3c2Cc2c(CO)cnc(C)c2O3)cc1`, the activation was inactive: -15.4%. The same measure for `CCOc1ccc(NC(=O)c2c(Nc3ccc(OC)cc3OC)sc(C(=O)c3ccc(Cl)cc3)c2N)cc1`: inactive: -25.2%; for `COCCn1c(=O)[nH]c2cc(C(=O)NCc3ccccc3Cl)ccc2c1=O`: inactive: 13%. As for `CC[C@H]1CN2CCc3cc(OC)c(OC)cc3[C@@H]2C[C@@H]1C[C@H]1NCCc2cc(OC)c(OC)cc21`, the figure is inactive: 3.44% and inactive: -9.14%; as for `CCOc1ccc(CCNC(=O)CCc2cn(Cc3ccccc3F)c3ccccc23)cc1OCC`, inactive: -28.7%; as for `CCOC(=O)c1cccc(NC(=O)c2cc3sccc3n2Cc2ccc(Cl)cc2)c1`, inactive: -3.48%. Regarding `O=C(O)c1ccc(CNCc2ccc(Cl)cc2)s1`, the activation was inactive: -34.9%. As for `Cc1c(-c2nc(-c3ccc4c(c3)OCO4)no2)nnn1-c1ccc(Br)cc1F`, the figure is inactive: -2.44%; as for `Cc1ccccc1NC(=O)Cn1c(SCC(=O)Nc2ccc(F)cc2)nc2ccccc21`, inactive: -11.6%. The same measure for `CCOC(=O)c1ccc(NC(=O)Cn2c(=O)n(-c3ccc(C)cc3)c(=O)c3c2cnn3C)cc1`: inactive: 19%; for `CC(C)CN(C(=O)c1cccc(S(=O)(=O)N2CCCCC2)c1)C1CCS(=O)(=O)C1` (stereo not drawn): inactive: -14%. As to `Cc1ccc2nc(Nc3cccc(Cl)c3C)c(-n3nc(C)cc3C)nc2c1`, the activation was inactive: -7.88%. As for `O=C(COc1ccccc1Cl)OCc1cc(=O)n2nc(-c3cccs3)sc2n1`, the figure is inactive: 4.9%.

As for `Cc1ccc(CNC(=O)Cc2c(C)c3cc4c(C)coc4cc3oc2=O)cc1`, the activation is inactive: -10.4%. As for `CCOC(=O)c1ccc(N2CCN(c3cccc(OC)c3)CC2)c(NC(=O)Nc2ccc(OCC)cc2)c1`, the figure is inactive: -21.2%; as for `CCOC(=O)c1c(NC(=O)c2nc(SCC)ncc2Cl)sc(C(C)=O)c1C`, inactive: -0.81%; as for `CCC(Cn1nnc2ccccc2c1=O)NC(=O)Nc1cccc(C)c1C` (stereo not drawn), inactive: -8.7%.

For the molecule `COc1ccc(C(=O)OCc2cc(=O)n3nc(-c4cccs4)sc3n2)cc1`, the activation was inactive: 31.9%. The same measure for `Cc1ccc(S(=O)(=O)Cc2ccc(C(=O)N3CCN(c4cccc(C)c4C)CC3)o2)cc1`: inactive: -4.67%; for `CCC(=O)N1CCc2cc(Br)cc(S(=O)(=O)CCC(=O)N3CCN(c4cccc(C(F)(F)F)c4)CC3)c21`: inactive: -3.02%. In the case of `Cc1ccc(NC(=O)C2CCCN(c3nnc(C)c4c(C)n(-c5ccccc5)nc34)C2)c(Cl)c1` (stereo not drawn), the activation was inactive: 11.9%.

On to `O=[N+]([O-])c1cc(-c2nc(-c3ccccc3)no2)ccc1N1CCCCC1`, for which the activation is inactive: -19.9%. As for `CC1=C(C(=O)Nc2ccccc2)C(c2ccncc2)n2nc(SCc3ccccc3Cl)nc2N1` (stereo not drawn), the figure is inactive: 2.52%; as for `O=C(Cn1c(=O)n(Cc2ccco2)c(=O)c2ccccc21)Nc1ccc(Cl)cc1Cl`, inactive: -19.7%. On to `N[C@@H](Cc1cnc[nH]1)C(=O)O`, for which the activation is inactive: 2.49%. `CC(=O)C1=C(OC(=O)C(C)C)c2ccccc2S(=O)(=O)N1Cc1ccccc1`: the activation is inactive: -29.7%.

Consider `O=C(NCCCc1nc2ccccc2n1Cc1ccccc1Cl)C1CCCCC1`, for which the activation was inactive: 0.166%. Consider `CCC(=O)N1CCc2cc(Br)cc(S(=O)(=O)NCCc3ccc(OC)c(OC)c3)c21`, for which the activation was inactive: 10.4%. As for `Cc1[nH]n2c(=O)cc(-c3ccccc3Cl)nc2c1-c1ccccc1`, the activation was inactive: -45.8%.

As for `CCn1c(SCc2ccccc2)nnc1-c1nonc1NC(C)=O`, the activation is inactive: 3.6%. The same measure for `CCCCCCN(CCCCCC)C(=O)Cc1c(-c2ccc(F)cc2)[nH]c2ccccc12`: inactive: -29.9%; for `CCN(CC)CCNC(=O)c1ccc(NC(C)=O)cc1`: inactive: 1.33% and inactive: -1.23%. The same measure for `CCOC(=O)C1CCCN(C(=O)Cn2ncc3c([nH]c4ccccc43)c2=O)C1` (stereo not drawn): inactive: 13.7%; for `COc1ccc(C(CC(=O)Nc2ccc(F)c(Cl)c2)N2Cc3ccccc3C2=O)cc1OC` (stereo not drawn): inactive: -5.17%. `Cc1cc(NC(=O)CN2C(=O)C(C)(C)c3ccccc32)ccc1Br`: the activation was inactive: 22.3%. The same measure for `CCN(C(=O)CSc1nc2ccccc2n1CC(=O)Nc1cccc(C#N)c1)c1ccccc1`: inactive: -25.5%; for `Cc1ccc(CNC(=O)CC2Oc3ccccc3NC2=O)cc1` (stereo not drawn): inactive: -4.1%; for `Cc1ccc(N2CC3=C(C2=O)C(c2ccc(Br)cc2)NC(=O)N3C)cc1` (stereo not drawn): inactive: -25.2%.

Take `O=C(Cn1c(=O)oc2cc(S(=O)(=O)N3CCCCCC3)ccc21)Nc1cccc(C(F)(F)F)c1`: the activation was inactive: 22.6%. Turning to `Cc1ccccc1CNC(=O)c1ccc(NC(=O)c2nsc3ccccc23)cc1`, the activation was inactive: -20.1%. In the case of `Cc1ccc(-c2nc(C(=O)NCc3ccc(Cl)cc3)c3n2CCCCC3)cc1`, the activation is inactive: -36.6%.

In the case of `Cc1ccccc1Nc1sc(C(=O)c2ccc3c(c2)OCO3)c(N)c1S(=O)(=O)c1ccccc1`, the activation was inactive: -19.8%. As for `O=C1Cc2cc(S(=O)(=O)N3CCN(c4ccccc4)CC3)ccc2N1`, the figure is inactive: -2.82%; as for `CCOC(=O)c1cnn(-c2ccc(OC)cc2)c1C1CCN(C(=O)OC(C)(C)C)CC1`, inactive: -6.94%. In the case of `COC(=O)c1ccc(NC(=O)CCc2c(C)nn(-c3ccc(N4CCCC4)nn3)c2C)cc1`, the activation was inactive: -7.91%.

In the case of `COc1ccccc1N1CCN(C(=O)CCc2c(C)nn(-c3ccc(N4CCCC4)nn3)c2C)CC1`, the activation was inactive: -6.85%. As for `CC1CCCCN1c1csc2ccc(F)cc2c1=O` (stereo not drawn), the figure is inactive: 17.8%; as for `Cn1nc(C(=O)Nc2cc(F)ccc2F)c2c1-c1ccccc1SC2`, inactive: 2.61%.
